The IC50 comes from the fitted curve, where viability falls to half of the control; where the fit passes the top or lowest dose, that dose stands as a limit. AUC sums up the same curve from the lowest dose to the 256-fold higher top dose; the more sensitive the line, the further below 1. Where the top dose is marked as inferred, it was derived from the fitted curves, not read from the paper.
compound: Cn1cc(C2=C(c3cn(C4CCN(Cc5ccccn5)CC4)c4ccccc34)C(=O)NC2=O)c2ccccc21 [LY317615]; assay: Viability of human cancer cell lines after 72 h of drug (GDSC screen); conditions: top dose inferred
Procedure: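 Human cancer cell lines in 384-well plates, medium with 10% serum, drug for 72 h over a 256-fold dose range (nine 2-fold or five 4-fold steps up to the top dose). Adherent lines were fixed and stained with the nucleic acid dye Syto60, suspension lines read with resazurin; signal relative to control wells, capped at 0 and 100%. One two-parameter sigmoid per drug and line, fitted in a mixed model over all curves with the slope shared within a line.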

Cell Line	AUC	IC50 [µM]
MZ1-PC (pancreas, adherent, top dose 20 µM)	0.649	3.59
LNZTA3WT4 (glioma, adherent, top dose 20 µM)	0.988	> 20
no-11 (glioma, adherent, top dose 20 µM)	0.968	> 20
SW626 (ovary, adherent, top dose 20 µM)	0.76	8.29
MHH-PREB-1 (B-cell leukaemia, suspension, top dose 20 µM)	0.883	17.6
NCI-H2085 (lung adenocarcinoma, adherent, top dose 20 µM)	0.816	12.2
BCPAP (thyroid, adherent, top dose 20 µM)	0.805	8.95
SUP-M2 (anaplastic large cell lymphoma, suspension, top dose 20 µM)	0.867	11.4
COLO-668 (small cell lung carcinoma, adherent, top dose 20 µM)	0.426	0.787
MG-63 (osteosarcoma, adherent, top dose 20 µM)	0.984	> 20
SAT (head and neck, adherent, top dose 20 µM)	0.959	> 20
MN-60 (B-cell leukaemia, suspension, top dose 20 µM)	0.841	14.8
NCI-H2405 (lung adenocarcinoma, adherent, top dose 20 µM)	0.869	> 20
NB-4 (acute myeloid leukaemia, suspension, top dose 20 µM)	0.581	2
SK-MEL-3 (melanoma, adherent, top dose 20 µM)	0.981	> 20
VAL (B-cell lymphoma, suspension, top dose 20 µM)	0.842	14.1
ES-2 (ovary, adherent, top dose 20 µM)	0.98	> 20
CaR-1 (large intestine, adherent, top dose 20 µM)	0.95	> 20
MFE-319 (endometrium, adherent, top dose 20 µM)	0.963	> 20
LK-2 (lung squamous cell carcinoma, adherent, top dose 20 µM)	0.945	> 20
KY821 (leukaemia, suspension, top dose 20 µM)	0.826	10.1

Cell Line	AUC	IC50 [µM]
NOS-1 (osteosarcoma, adherent, top dose 20 µM)	0.823	15.5
M059J (glioma, adherent, top dose 20 µM)	0.797	10.4
D-392MG (glioma, adherent, top dose 20 µM)	0.893	> 20
EW-24 (Ewing sarcoma, semi-adherent, top dose 20 µM)	0.993	> 20
OV-90 (ovary, adherent, top dose 20 µM)	0.764	9.28
PEO1 (ovary, adherent, top dose 20 µM)	0.894	> 20
SNU-423 (liver, adherent, top dose 20 µM)	0.681	4.39
G-361 (melanoma, adherent, top dose 20 µM)	0.912	> 20
YT (lymphoid neoplasm, suspension, top dose 20 µM)	0.883	15.9
Ca-Ski (cervix, adherent, top dose 20 µM)	0.515	1.38
42-MG-BA (glioma, adherent, top dose 20 µM)	0.925	> 20
NCI-H2110 (non-small cell lung carcinoma, adherent, top dose 20 µM)	0.849	15.5
NCI-H187 (small cell lung carcinoma, suspension, top dose 20 µM)	0.943	> 20
NCI-H441 (lung adenocarcinoma, adherent, top dose 20 µM)	0.939	> 20
VMRC-RCZ (kidney, adherent, top dose 20 µM)	0.512	1.36
SCC-4 (head and neck, adherent, top dose 20 µM)	0.963	> 20
H2373 (mesothelioma, adherent, top dose 20 µM)	0.975	> 20
ME-1 (acute myeloid leukaemia, suspension, top dose 20 µM)	0.964	> 20
GP5d (large intestine, adherent, top dose 20 µM)	0.788	7.8
HL-60 (acute myeloid leukaemia, suspension, top dose 20 µM)	0.934	> 20
SKN (uterus, adherent, top dose 20 µM)	0.766	8.93

Cell Line	AUC	IC50 [µM]
RL (B-cell lymphoma, suspension, top dose 20 µM)	0.546	1.65
EW-18 (Ewing sarcoma, suspension, top dose 20 µM)	0.856	17.8
RCC-JW (kidney, adherent, top dose 20 µM)	0.743	6.34
DU-145 (prostate, adherent, top dose 20 µM)	0.945	> 20
SW13 (adrenal gland, adherent, top dose 20 µM)	0.988	> 20
HCC1954 (breast, adherent, top dose 20 µM)	0.567	1.96
SK-N-DZ (neuroblastoma, adherent, top dose 20 µM)	0.987	> 20
SW780 (bladder, adherent, top dose 20 µM)	0.986	> 20
NCI-H1944 (lung adenocarcinoma, adherent, top dose 20 µM)	0.404	0.668
Farage (B-cell lymphoma, suspension, top dose 20 µM)	0.684	3.66
JURL-MK1 (chronic myeloid leukaemia, suspension, top dose 20 µM)	0.773	7.75
K2 (melanoma, adherent, top dose 20 µM)	0.95	> 20
NCI-H1688 (small cell lung carcinoma, adherent, top dose 20 µM)	0.877	> 20
SLVL (B-cell lymphoma, suspension, top dose 20 µM)	0.576	2.05
Calu-6 (lung adenocarcinoma, adherent, top dose 20 µM)	0.853	19.4
SU-DHL-8 (B-cell lymphoma, suspension, top dose 20 µM)	0.888	20
NCI-H2444 (non-small cell lung carcinoma, adherent, top dose 20 µM)	0.953	> 20
KP-2 (pancreas, adherent, top dose 20 µM)	0.634	3.03
8-MG-BA (glioma, adherent, top dose 20 µM)	0.876	17.8
SNU-1040 (large intestine, adherent, top dose 20 µM)	0.401	0.607
COLO-205 (large intestine, suspension, top dose 20 µM)	0.73	5.58

Cell Line	AUC	IC50 [µM]
NCI-H841 (small cell lung carcinoma, adherent, top dose 20 µM)	0.95	> 20
NB6 (neuroblastoma, adherent, top dose 20 µM)	0.948	> 20
ME-180 (cervix, adherent, top dose 20 µM)	0.439	0.844
NCI-H2342 (lung adenocarcinoma, adherent, top dose 20 µM)	0.937	> 20
KALS-1 (glioma, adherent, top dose 20 µM)	0.871	> 20
FU-OV-1 (ovary, adherent, top dose 20 µM)	0.954	> 20
HT (B-cell lymphoma, suspension, top dose 20 µM)	0.924	> 20
KM-H2 (Hodgkin lymphoma, suspension, top dose 20 µM)	0.902	19.2
HOP-92 (large cell lung carcinoma, adherent, top dose 20 µM)	0.984	> 20
H513 (mesothelioma, semi-adherent, top dose 20 µM)	0.905	> 20
PFSK-1 (medulloblastoma, adherent, top dose 20 µM)	0.984	> 20
SR (lymphoid neoplasm, suspension, top dose 20 µM)	0.799	8.48
JHH-4 (liver, adherent, top dose 20 µM)	0.935	> 20
SUP-HD1 (Hodgkin lymphoma, suspension, top dose 20 µM)	0.873	17.6
RC-K8 (B-cell lymphoma, suspension, top dose 20 µM)	0.95	> 20
NB69 (neuroblastoma, adherent, top dose 20 µM)	0.595	2.2
HCC-44 (lung adenocarcinoma, adherent, top dose 20 µM)	0.435	0.834
GR-ST (lymphoblastic leukaemia, suspension, top dose 20 µM)	0.866	> 20

Reference: the supplement of paper PMC4967469
